The other results are listed elsewhere or left out. The full chains were built here from the parent and the listed change. Values near 0.05 are background.
B1: TEV protease; numbered along this chain (parent)
chain: MGESLFKGPRDYNPISSSICHLTNESDGHTTSLYGIGFGPFIITNKHLFRRNNGTLVVQSLHGVFKVKDTTTLQQHLVDGRDMIIIRMPKDFPPFPQKLKFREPQREERICLVTTNFQTKSMSSMVSDTSCTFPSGDGIFWKHWIQTKDGQCGSPLVSTRDGFIVGIHSASNFTNTNNYFTSVPKNFMELLTNQEAQQWVSGWRLNADSVLWGGHKVFMVKPEEPFQPVKEATQL

Variants of: B1
Assay: raw area under fraction-flipped curve 0-4 h after induction (AUC4h, not background-subtracted), DNA-recorder readout of cleavage of the substrate (dimensionless); higher = more cleavage of the substrate by the protease variant
Details: temperature: 34 °C; time window: 0-4 h after rhamnose induction
Method: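 In vivo DNA recorder in E. coli TOP10(DE3) ΔrhaA at 34 °C. Each TEVp single-site mutant (parent TEVp 0) is paired with a single-site variant of the 7-mer TEVs (canonical ENLYFQ|S). The substrate sits between flexible linkers in a Bxb1-sfGFP-TEVs-SsrA fusion, so cleavage stabilises Bxb1 and speeds flipping of a recombination array, read by NGS. The value is the raw area under the fraction-flipped curve over 0-4 h after rhamnose induction (AUC4h), with ≥20 reads per time point. It is not background-subtracted; inactive controls average about 0.047.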
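Also: Bxb1 expression induced with 0.2% (w/v) L-rhamnose at OD600 near 0.5, cultures sampled hourly, flipped fraction per protease–substrate barcode pair counted by paired-end Illumina sequencing.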

Variant | area with substrate ENLYFQC | area with substrate ENLYFQD | area with substrate ENLYFQE | area with substrate ENLYFQF | area with substrate ENLYFQG | area with substrate ENLYFQL | area with substrate ENLYFQM | area with substrate ENLYFQN | area with substrate ENLYFQP | area with substrate ENLYFQR | area with substrate ENLYFQS | area with substrate ENLYFQV | area with substrate ENLYFQW | area with substrate ENLYFQH | area with substrate ENLYFQK | area with substrate ENLYFQQ | area with substrate ENLYFQT | area with substrate ENLYFQY | area with substrate ENLYFQI
R102S | 0.0652 | 0.0298 | 0.0503 | 0.0569 | 0.0597 | 0.0498 | 0.0552 | 0.0589 | 0.0543 | 0.0432 | 0.0573 | 0.0669 | 0.0547 | – | – | – | – | – | –
R102V | 0.0513 | – | – | 0.0452 | 0.0428 | – | 0.0641 | 0.0544 | – | 0.0495 | 0.0544 | – | – | 0.0433 | 0.0432 | 0.0452 | 0.0495 | 0.0393 | –
N172D | 0.0943 | 0.0736 | – | – | 0.0789 | 0.0505 | 0.0612 | – | 0.0495 | 0.0587 | 0.0857 | 0.0578 | – | 0.0512 | – | 0.0584 | – | 0.0756 | –
M188V | 0.0886 | – | – | – | 0.109 | 0.0609 | 0.093 | – | 0.0565 | 0.0574 | 0.103 | 0.0766 | – | – | – | – | 0.0487 | – | 0.0573
A207F | 0.0911 | – | – | – | – | 0.0542 | 0.0704 | 0.0708 | – | – | 0.0865 | 0.0583 | – | 0.0816 | 0.0637 | 0.0668 | 0.0697 | – | 0.0552
F117T | 0.113 | – | – | 0.0771 | – | 0.0704 | – | 0.0841 | – | 0.0627 | 0.106 | – | 0.079 | – | – | – | 0.0499 | – | –
V210I | 0.0898 | – | – | – | 0.114 | 0.0616 | 0.0878 | – | – | – | 0.105 | – | – | 0.0647 | 0.0653 | – | – | – | –
S123L | 0.124 | 0.0628 | – | – | – | – | 0.0501 | 0.0911 | – | 0.0061 | 0.104 | – | – | – | 0.0632 | 0.0919 | 0.0731 | – | 0.071
R109D | 0.119 | – | – | – | – | 0.0678 | – | 0.0815 | 0.0735 | – | 0.0953 | – | 0.0537 | – | 0.0721 | 0.0539 | 0.0563 | – | –
D149F | 0.102 | – | – | – | 0.0762 | 0.0433 | – | 0.0776 | – | 0.057 | 0.0816 | 0.0505 | 0.0614 | – | 0.0353 | – | – | 0.0644 | 0.0538
D149A | 0.0999 | – | – | 0.0409 | 0.0669 | 0.0626 | 0.0749 | 0.0596 | – | 0.069 | 0.1 | 0.067 | – | – | – | 0.0629 | 0.053 | 0.0678 | 0.066
K185Y | 0.126 | 0.0735 | – | – | 0.104 | 0.0537 | 0.108 | 0.0796 | 0.0632 | 0.056 | 0.107 | 0.0915 | 0.0701 | 0.0914 | 0.0441 | 0.0741 | 0.0775 | – | –
F173V | 0.112 | 0.0784 | 0.0536 | – | – | 0.0494 | 0.0672 | 0.0779 | 0.0594 | 0.0481 | 0.105 | – | 0.0695 | 0.074 | 0.0589 | 0.0624 | – | – | 0.0547
W141K | 0.0545 | – | 0.0605 | 0.0454 | 0.0966 | – | 0.0546 | – | – | 0.061 | 0.0568 | 0.0544 | – | – | – | 0.0328 | 0.0553 | – | 0.0623
W141L | 0.0627 | 0.0465 | – | – | 0.0646 | 0.0428 | 0.0511 | 0.0533 | 0.0544 | – | 0.0542 | – | – | 0.0659 | – | – | 0.0538 | 0.0388 | 0.0659
V157H | 0.0505 | 0.0666 | 0.0576 | 0.0381 | – | 0.0456 | 0.0754 | 0.0407 | 0.062 | 0.0513 | 0.0554 | 0.0383 | 0.0417 | – | 0.0435 | – | 0.0469 | 0.0544 | 0.0533

Variant | area with substrate ENLYFQC | area with substrate ENLYFQD | area with substrate ENLYFQE | area with substrate ENLYFQF | area with substrate ENLYFQG | area with substrate ENLYFQL | area with substrate ENLYFQM | area with substrate ENLYFQN | area with substrate ENLYFQP | area with substrate ENLYFQR | area with substrate ENLYFQS | area with substrate ENLYFQV | area with substrate ENLYFQW | area with substrate ENLYFQH | area with substrate ENLYFQK | area with substrate ENLYFQQ | area with substrate ENLYFQT | area with substrate ENLYFQY | area with substrate ENLYFQI
P155T | 0.0738 | 0.067 | – | – | 0.0519 | 0.0498 | – | – | 0.0534 | 0.0498 | 0.063 | 0.0599 | – | – | 0.047 | – | 0.0579 | – | –
E108K | 0.124 | – | – | 0.0413 | – | 0.0646 | – | 0.0641 | 0.0519 | 0.0519 | 0.0602 | 0.0528 | 0.0627 | 0.0468 | – | – | 0.0662 | 0.0592 | –
E107Q | 0.111 | – | – | – | 0.1 | – | – | 0.0685 | – | 0.0545 | 0.0989 | 0.0654 | 0.0693 | 0.101 | – | – | 0.0826 | 0.0982 | 0.0377
S209M | 0.114 | 0.072 | – | – | 0.0931 | 0.0568 | 0.064 | – | 0.0589 | 0.0424 | 0.0992 | – | – | 0.0756 | – | – | 0.0586 | – | –
F101P | 0.0624 | – | – | – | 0.0485 | 0.0492 | 0.0317 | 0.0405 | 0.0354 | – | 0.0546 | 0.0603 | – | 0.0553 | 0.0508 | – | 0.0531 | 0.0598 | –
F101A | 0.0727 | – | – | – | 0.0544 | 0.0508 | 0.0644 | – | – | 0.048 | 0.067 | 0.0608 | 0.0316 | – | – | – | 0.062 | – | –
Y179P | 0.045 | 0.0546 | 0.0608 | – | 0.0606 | – | 0.0551 | 0.0454 | – | – | 0.0552 | – | 0.0514 | 0.065 | 0.0582 | 0.0512 | 0.0564 | 0.0607 | –
C131A | 0.108 | 0.0949 | – | – | – | – | – | 0.084 | – | – | 0.102 | – | 0.0628 | – | – | – | 0.0691 | – | –
L205P | 0.0734 | 0.0623 | – | – | 0.0719 | – | 0.049 | 0.0459 | 0.0588 | 0.0324 | 0.0682 | – | 0.0461 | 0.0643 | 0.0526 | – | 0.0517 | – | –
T181D | 0.0048 | – | – | – | 0.0564 | – | – | – | – | 0.0792 | 0.0554 | – | – | – | 0.0669 | – | 0.0494 | – | –
T181Q | 0.0624 | – | 0.058 | – | – | – | – | – | 0.0639 | 0.0519 | 0.0675 | – | – | – | – | – | – | – | –
K98H | 0.12 | 0.0669 | – | – | 0.0855 | 0.0665 | – | 0.0791 | – | 0.0618 | 0.104 | 0.0576 | 0.0748 | – | 0.0602 | – | 0.0697 | 0.069 | 0.0661
L191N | 0.0672 | 0.0467 | 0.0455 | – | 0.0597 | 0.0686 | 0.0289 | 0.0585 | – | 0.0465 | 0.0589 | 0.0483 | 0.0461 | 0.0533 | 0.0461 | 0.0512 | 0.0529 | 0.056 | 0.0418
S182D | 0.0809 | – | – | – | 0.0755 | 0.0571 | – | 0.0642 | – | – | 0.0759 | – | – | – | – | – | – | – | –
S154E | 0.0883 | – | 0.0444 | – | – | – | 0.0654 | 0.0537 | – | 0.0497 | 0.0804 | – | 0.05 | – | – | – | – | – | –

From the supplement of paper PMC12217912
